Here are results for 40 sequences from article PMC12820563.

The other results are listed elsewhere or left out. The list includes weakly bound sequences.

The assay has as its target T1, MBP-FoxP3dN (UniProt Q99JB6).
T1 sequence: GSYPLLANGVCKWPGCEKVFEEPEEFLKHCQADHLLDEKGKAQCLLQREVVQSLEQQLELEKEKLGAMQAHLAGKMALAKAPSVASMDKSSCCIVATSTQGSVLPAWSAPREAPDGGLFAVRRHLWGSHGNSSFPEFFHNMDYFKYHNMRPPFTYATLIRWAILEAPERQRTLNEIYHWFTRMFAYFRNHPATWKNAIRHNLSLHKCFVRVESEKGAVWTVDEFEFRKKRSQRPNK
Nature of the assay: PD-seq (MBP pull-down with sequencing). The following applies: 20 mM Tris-HCl pH 7.5, 100 mM NaCl, 1.5 mM MgCl2, 0.4 uM protein, 0.1 uM dsDNA library, 30 min, room temperature, amylose pull-down; high values mean tight binding; double strand, one strand shown.
Consider “GATGATTGTTCTCCCAGCTGATGAATTGTCAGCATCGAGTAAACAAATTTTCCTAATCTTTCTGTTCAAGCGCCATCTAC”, for which the binding signal (RPM ratio (pull-down/input)) is 1.17. “GATGATTGTTCTCCCAGCTGATGAATTACATATGTCGAGTAAACAAATTTTCCTAATCTTTCTGTTCAAGCGCCATCTAC”: the binding signal (RPM ratio (pull-down/input)) came out at 0.761. For the sequence “GATGATTGTTCTCCCAGCTGATGAATTTGTAATTTCGAGTAAACAAATTTTCCTAATCTTTCTGTTCAAGCGCCATCTAC”, the binding signal (RPM ratio (pull-down/input)) came to 3.17. The same measure for “GATGATTGTTCTCCCAGCTGATGAATTCCTCTCATCGAGTAAACAAATTTTCCTAATCTTTCTGTTCAAGCGCCATCTAC”: 0.316; for “GATGATTGTTCTCCCAGCTGATGAATTGCTTAAATCGAGTAAACAAATTTTCCTAATCTTTCTGTTCAAGCGCCATCTAC”: 0.457; for “GATGATTGTTCTCCCAGCTGATGAATTACCTAACTCGAGTAAACAAATTTTCCTAATCTTTCTGTTCAAGCGCCATCTAC”: 0.325. Consider “GATGATTGTTCTCCCAGCTGATGAATTCGCGGGCTCGAGTAAACAAATTTTCCTAATCTTTCTGTTCAAGCGCCATCTAC”, for which the binding signal (RPM ratio (pull-down/input)) was 0.294. Under “GATGATTGTTCTCCCAGCTGATGAATTGTTTGCTTCGAGTAAACAAATTTTCCTAATCTTTCTGTTCAAGCGCCATCTAC” stands 6.19; under “GATGATTGTTCTCCCAGCTGATGAATTGCTATCTTCGAGTAAACAAATTTTCCTAATCTTTCTGTTCAAGCGCCATCTAC”, 0.906; under “GATGATTGTTCTCCCAGCTGATGAATTAGTGCCGTCGAGTAAACAAATTTTCCTAATCTTTCTGTTCAAGCGCCATCTAC”, 0.933. “GATGATTGTTCTCCCAGCTGATGAATTATAGTACTCGAGTAAACAAATTTTCCTAATCTTTCTGTTCAAGCGCCATCTAC”: the binding signal (RPM ratio (pull-down/input)) is 0.657. For “GATGATTGTTCTCCCAGCTGATGAATTTCGAGGGTCGAGTAAACAAATTTTCCTAATCTTTCTGTTCAAGCGCCATCTAC”, the binding signal (RPM ratio (pull-down/input)) worked out at 0.322. Regarding “GATGATTGTTCTCCCAGCTGATGAATTGCATAAATCGAGTAAACAAATTTTCCTAATCTTTCTGTTCAAGCGCCATCTAC”, the binding signal (RPM ratio (pull-down/input)) turned out to be 0.672. For the sequence “GATGATTGTTCTCCCAGCTGATGAATTTGCGTGCTCGAGTAAACAAATTTTCCTAATCTTTCTGTTCAAGCGCCATCTAC”, the binding signal (RPM ratio (pull-down/input)) worked out at 3.24. Under “GATGATTGTTCTCCCAGCTGATGAATTCACAATATCGAGTAAACAAATTTTCCTAATCTTTCTGTTCAAGCGCCATCTAC” stands 0.837. With “GATGATTGTTCTCCCAGCTGATGAATTGTTAACCTCGAGTAAACAAATTTTCCTAATCTTTCTGTTCAAGCGCCATCTAC”, the binding signal (RPM ratio (pull-down/input)) came out at 0.487. The same measure for “GATGATTGTTCTCCCAGCTGATGAATTATCTTACTCGAGTAAACAAATTTTCCTAATCTTTCTGTTCAAGCGCCATCTAC”: 0.32; for “GATGATTGTTCTCCCAGCTGATGAATTACGCTCCTCGAGTAAACAAATTTTCCTAATCTTTCTGTTCAAGCGCCATCTAC”: 0.968. Under “GATGATTGTTCTCCCAGCTGATGAATTTTTCGATTCGAGTAAACAAATTTTCCTAATCTTTCTGTTCAAGCGCCATCTAC” stands 0.26; under “GATGATTGTTCTCCCAGCTGATGAATTCCACGAATCGAGTAAACAAATTTTCCTAATCTTTCTGTTCAAGCGCCATCTAC”, 0.229.

For “GATGATTGTTCTCCCAGCTGATGAATTCGCAACGTCGAGTAAACAAATTTTCCTAATCTTTCTGTTCAAGCGCCATCTAC”, the binding signal (RPM ratio (pull-down/input)) amounted to 1.39. Consider “GATGATTGTTCTCCCAGCTGATGAATTCCTAACATCGAGTAAACAAATTTTCCTAATCTTTCTGTTCAAGCGCCATCTAC”, for which the binding signal (RPM ratio (pull-down/input)) is 0.48. As to “GATGATTGTTCTCCCAGCTGATGAATTTATTCTCTCGAGTAAACAAATTTTCCTAATCTTTCTGTTCAAGCGCCATCTAC”, the binding signal (RPM ratio (pull-down/input)) came out at 0.556. As for “GATGATTGTTCTCCCAGCTGATGAATTGAAAGTATCGAGTAAACAAATTTTCCTAATCTTTCTGTTCAAGCGCCATCTAC”, the binding signal (RPM ratio (pull-down/input)) was determined as 0.38. With “GATGATTGTTCTCCCAGCTGATGAATTACGTGCATCGAGTAAACAAATTTTCCTAATCTTTCTGTTCAAGCGCCATCTAC”, the binding signal (RPM ratio (pull-down/input)) was determined as 1.6. The same measure for “GATGATTGTTCTCCCAGCTGATGAATTGGCTCGTTCGAGTAAACAAATTTTCCTAATCTTTCTGTTCAAGCGCCATCTAC”: 0.299. Consider “GATGATTGTTCTCCCAGCTGATGAATTGTTCTCGTCGAGTAAACAAATTTTCCTAATCTTTCTGTTCAAGCGCCATCTAC”, for which the binding signal (RPM ratio (pull-down/input)) was found to be 0.355. With “GATGATTGTTCTCCCAGCTGATGAATTTTGGACCTCGAGTAAACAAATTTTCCTAATCTTTCTGTTCAAGCGCCATCTAC”, the binding signal (RPM ratio (pull-down/input)) was 0.321. As to “GATGATTGTTCTCCCAGCTGATGAATTTCGAGACTCGAGTAAACAAATTTTCCTAATCTTTCTGTTCAAGCGCCATCTAC”, the binding signal (RPM ratio (pull-down/input)) was 0.481. Turning to “GATGATTGTTCTCCCAGCTGATGAATTTGACCTATCGAGTAAACAAATTTTCCTAATCTTTCTGTTCAAGCGCCATCTAC”, the binding signal (RPM ratio (pull-down/input)) was found to be 0.477. Take “GATGATTGTTCTCCCAGCTGATGAATTGTCGTTTTCGAGTAAACAAATTTTCCTAATCTTTCTGTTCAAGCGCCATCTAC”: the binding signal (RPM ratio (pull-down/input)) is 1.22. Consider “GATGATTGTTCTCCCAGCTGATGAATTTTGTACTTCGAGTAAACAAATTTTCCTAATCTTTCTGTTCAAGCGCCATCTAC”, for which the binding signal (RPM ratio (pull-down/input)) was found to be 1.27. On to “GATGATTGTTCTCCCAGCTGATGAATTTCATCGTTCGAGTAAACAAATTTTCCTAATCTTTCTGTTCAAGCGCCATCTAC”, for which the binding signal (RPM ratio (pull-down/input)) came out at 0.624. Under “GATGATTGTTCTCCCAGCTGATGAATTCAAGGCGTCGAGTAAACAAATTTTCCTAATCTTTCTGTTCAAGCGCCATCTAC” stands 0.468; under “GATGATTGTTCTCCCAGCTGATGAATTCGGTAGATCGAGTAAACAAATTTTCCTAATCTTTCTGTTCAAGCGCCATCTAC”, 0.394. The same measure for “GATGATTGTTCTCCCAGCTGATGAATTGTGTGGCTCGAGTAAACAAATTTTCCTAATCTTTCTGTTCAAGCGCCATCTAC”: 1.97. In the case of “GATGATTGTTCTCCCAGCTGATGAATTCGGGGTTTCGAGTAAACAAATTTTCCTAATCTTTCTGTTCAAGCGCCATCTAC”, the binding signal (RPM ratio (pull-down/input)) amounted to 0.644.

As to “GATGATTGTTCTCCCAGCTGATGAATTAGCTCCGTCGAGTAAACAAATTTTCCTAATCTTTCTGTTCAAGCGCCATCTAC”, the binding signal (RPM ratio (pull-down/input)) was 0.254.

Consider “GATGATTGTTCTCCCAGCTGATGAATTGATACGTTCGAGTAAACAAATTTTCCTAATCTTTCTGTTCAAGCGCCATCTAC”, for which the binding signal (RPM ratio (pull-down/input)) stood at 0.958. Consider “GATGATTGTTCTCCCAGCTGATGAATTACCATATTCGAGTAAACAAATTTTCCTAATCTTTCTGTTCAAGCGCCATCTAC”, for which the binding signal (RPM ratio (pull-down/input)) came out at 0.453.
